Test results: paper PMC10813319 (Biomedicines, 2024)

Test system: Aβd/t-induced cofilactin rods in E16.5 mouse hippocampal neurons (6 DIV)
Experiment: cells
Settings: for Inhibition of Aβd/t-induced rod formation at a single concentration: 1 nM peptide, 24 h with Aβd/t, n = 2 (Figure 3A)
Description: Each coated surface was washed three times with phosphate-buffered saline (PBS: 140 mM NaCl, 2.7 mM KCl, 8 mM NaH2PO4, pH 7.2). After incubation of the neurons for 2–3 h (37 °C, 5% CO2), medium was exchanged for serum-free complete hNB. Full changes of medium were performed every 2 days in vitro (DIV 2), and treatments were initiated at either DIV 5 or 6 and maintained for 24 to 48 h.

[1] = read-out: Rodent Neuron EC50, inhibition of Aβd/t-induced rods, neurons treated 24 h with Aβd/t plus peptide, Table 1
[2] = 6 DIV mouse hippocampal neurons

Row | Compound | EC50 [1] [nM] | also measured
1 | c1cc(CN2CCCNCCNCCCNCC2)ccc1CN1CCCNCCNCCCNCC1 [AMD3100, reference compound] | – | EC50 (Mus musculus, Hippocampal neuron, read-out: EC50 for inhibition of Aβd/t-induced rods, mouse neurons): 2 to 3 nM
2 | C[C@H](O)[C@@H](NC(=O)[C@@H](CO)NC(=O)[C@H](N)CO)C(=O)N[C@H](Cc1ccc(O)cc1)C(=O)N[C@H](CCCNC(=N)N)C(=O)O [Peptide 2] | ~1 | –
3 | C[C@H](O)[C@@H](NC(=O)[C@@H](Cc1ccc(O)cc1)NC(=O)[C@@H](CC(N)=O)NC(=O)[C@H](NC(=O)[C@H](N)CO)[C@H](C)O)C(=O)O [Peptide 3] (H-[dS][dT][dN][dY][dT]-OH) | ~1.5 | –
4 | CN[C@@H](C(=O)N[C@@H](C(=O)N[C@H](CC(N)=O)C(=O)N[C@H](Cc1ccc(O)cc1)C(=O)N[C@@H](C(=O)O)[C@H](C)O)[C@H](C)O)[C@H](C)O [Peptide 6] | > 5 | –
5 | C[C@H](O)[C@@H](N)C(=O)N[C@@H](C(=O)N[C@H](CC(N)=O)C(=O)N[C@H](Cc1ccc(O)cc1)C(=O)N[C@@H](C(=O)O)[C@H](C)O)[C@H](C)O [RAP-103] | 0.0015 | Inhibition of Aβd/t-induced rod formation at a single concentration [2]: significant rod-inhibiting activity
6 | C[C@H](O)[C@@H](NC(=O)[C@@H](Cc1ccc(O)cc1)NC(=O)[C@@H](CC(N)=O)NC(=O)[C@H](NC(=O)[C@H](NC(=O)[C@H](NC(=O)[C@@H](CO)NC(=O)[C@@H](C)N)[C@H](C)O)[C@H](C)O)[C@H](C)O)C(N)=O [RAP-310] | – | Inhibition of Aβd/t-induced rod formation at a single concentration [2]: significant rod-inhibiting activity
7 | Maraviroc [reference compound] | – | EC50 (read-out: EC50 for inhibition of Aβd/t-induced rods, mouse neurons, 6 DIV mouse hippocampal neurons, <1 nM to 100 nM, approximate, estimated from semi-log plots (Figure S2A,B), n = 3): 8 to 9 nM

Like-named read-outs stand apart in the source and are kept apart here. Square brackets hold non-standard residues; d marks the D form. Peptide text beside a SMILES is read from it.
